Source: PubChem BioAssay (NCI)
Several values for one entry are separate records, joined by “and”; a condition that tells them apart may be missing. Equal entries are not always repeated.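 The compound was tested at five concentrations on cells cultured in 96-well plates, with a 48-hour exposure period. Here, GI50 denotes the concentration required for 50% inhibition of growth. Definition used: TGI = concentration required for complete inhibition of growth.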

The molecules below were run on NCI-H322M lung (assay: growth of human tumour cells (NCI), 48 h).

Row | Compound | TGI | GI50
1 | O=C(O)CCC1(Br)CCCCC(Br)C1=O (centres undefined) | > 100 µM | 
2 | CCOc1ccc2c(ccc(/C=C\c3cc(C)c4cccnc4c3O)[n+]2C)c1 | 11.1 µM | 
3 | O=C1C(Cl)=C(Nc2cccc(O)c2)C(=O)N1c1ccc(Cl)c(Cl)c1 | 35.6 µM | 17.6 µM
4 | C=C1CCC2C3(C)COC(c4ccc(SC)cc4)OC3CCC2(C)C1C/C=C1/C(=O)OCC1O (centres undefined) | 28.9 µM | 13.5 µM
5 | CSc1nc2c(N)ncnc2n1C | > 100 µM | 
6 | CC1OC(OC2CC(O)C3(CO)C4C(O)CC5(C)C(C6=CC(=O)OC6)CCC5(O)C4CCC3(O)C2)C(O)C(O)C1O (centres undefined) | 0.0523 µM | < 0.0131 µM
7 | CCN(CC)CCNC(=O)c1cccc2cc3ccccc3nc12 | 33.8 µM | 
8 | C=C(CS(=O)(=O)c1ccccc1)[P+](c1ccccc1)(c1ccccc1)c1ccccc1 | > 100 µM | 
9 | CC1(C)CCc2cc3c(-c4ccccc4)cc(=O)oc3cc2O1 | > 100 µM | 
10 | O=C(O)CCCCn1cnc2c(=S)nc[nH]c21 | > 100 µM | 
11 | CNc1ccc(-c2cc(=O)oc3ccc(Cl)cc23)cc1 |  | 0.558 µM
12 | O=C(Nc1ccccc1C(=O)O)/C(=C/c1ccccc1)NC(=O)c1ccccc1 | > 100 µM | 
13 | CC(C)N=C(NC#N)NS(=O)(=O)c1cnccc1Nc1ccc(Cl)cc1 | > 100 µM | 
14 | Cc1c[nH]c(C(=O)O)c1-c1ccc2c(-c3ccccc3)nc3ccccc3n12 | > 100 µM | 
15 | CN1c2ccccc2S(=O)(=O)n2c(COc3ccc(Cl)cc3)nnc21 | > 100 µM | 
16 | CN1CCN(C(=S)N(C(=O)c2ccco2)c2ccccc2)CC1 | > 100 µM | 
17 | Nc1nc(NNc2ccc(Cl)c(Cl)c2)cc(=O)[nH]1 | > 100 µM | 
18 | CC1=C(c2cc(C(=O)Nc3ccc(Cl)c(Cl)c3)nc(N)n2)Sc2ccccc2N1 | > 100 µM | 
19 | C/C(=N/NC(=O)C(N)=O)C(CC(C(=O)Nc1ccccc1C)/C(C)=N\NC(=O)C(N)=O)C(=O)Nc1ccccc1C (centres undefined) | > 100 µM | 
20 | Cc1ccc(-n2c(Cn3nnc(-c4cccnc4)n3)nn(C3OC(COC(=O)c4ccccc4)C(OC(=O)c4ccccc4)C3OC(=O)c3ccccc3)c2=S)cc1 (centres undefined) | > 100 µM | 
21 | COc1ccc(Cc2cnc(NC(=O)c3sc4ccccc4c3Cl)s2)cc1 | > 100 µM | 0.739 µM
22 | COc1ccc(C2ON(c3ccccn3)CC=C2C)cc1 (centres undefined) | > 100 µM | 
23 | CCN(CC)CCCC(Nc1c2ccc(Cl)cc2nc2ccc(OC)cc12)c1ccc(F)cc1 (centres undefined) | 6.17 µM | 2.43 µM
24 | CC(C)C(=O)/C=C/c1ccc(Cl)cc1 | 60 µM | 
25 | COC(=O)C(Cc1ccccc1I)C1=CCC2(CC1)OCCO2 (centres undefined) | > 100 µM | 
26 | CCc1c(Cl)nc(Cl)nc1Cl | 3.52 µM | 

Row | Compound | TGI | GI50
27 | O=C1/C(=C/c2ccccc2)CCC/C1=C\c1ccccc1 | 12 µM and 34.2 µM and > 100 µM | 6.28 µM and 31.7 µM
28 | Cc1cc(-c2nc(-c3ccc(OC(F)(F)F)cc3)no2)nn1Cc1ccnc(N2CCN(C3CC3)CC2)c1 | > 100 µM | 19 µM
29 | O=C1NC(=O)C(C(c2ccc(Cl)cc2)C2C(=O)NC(=O)NC2=O)C(=O)N1 | > 100 µM | 
30 | O=C1c2nn(-c3ccccc3)nc2C(c2ccccc2)N1c1ccccc1 (centres undefined) | > 100 µM | 
31 | CN1C2C=C(c3ccccc3)CC1CC2 (centres undefined) | > 100 µM | 
32 | COc1cccc(C2NC(=S)NC(C)=C2C(=O)Nc2ccc(F)c(Cl)c2)c1 (centres undefined) | > 50 µM | 29.9 µM
33 | CC(=O)OC[C@]12CC[C@@H]([C@@H](C)C(N)=O)[C@@H]1[C@H]1CC[C@@H]3[C@@]4(C)CC[C@H](OC(C)=O)C(C)(C)[C@@H]4CC[C@@]3(C)[C@]1(C)CC2 | 27.2 µM | 13 µM
34 | CCOc1ccc(/C=C/[N+](=O)[O-])cc1 | 71 µM | 27.2 µM
35 | COc1ccc(C(C2C(=O)N(C)C(=O)N(C)C2=O)C(F)(F)C(=O)N(C)C)cc1 (centres undefined) | > 100 µM | 
36 | CN(C)CCNC(=O)c1cccc2nc3cccc(F)c3nc12 | 11.8 µM | 
37 | COc1cc(C(N)=O)cc(NC(=O)/C=C/c2ccccc2)c1OC | > 100 µM | 
38 | CC(=O)OCC1OC(OC2=C(CC=C(Cl)Cl)C(=O)c3ccccc3C2=O)C(OC(C)=O)C(OC(C)=O)C1OC(C)=O (centres undefined) | 29.1 µM | 14.2 µM
39 | N#CC(C#N)=C(N)/C(C#N)=C/c1cc(O)c(O)c(Br)c1 | > 100 µM | 
40 | O=c1c2ccccc2c(=O)c2c1cc(Cl)c1[nH]c3c([nH]c12)c(Cl)cc1c(=O)c2ccccc2c(=O)c13 | > 100 µM | 
41 | COc1ccc(N[C@H](CS(=O)c2ccc(C)cc2)C(F)(F)C(F)(F)F)cc1 (some centres undefined) | > 100 µM | 
42 | COc1cc2c(cc1OC)C1(c3ccccc3)CN(C2)Cc2cc(OC)c(OC)cc21 | > 100 µM | 
43 | O=C(O)c1cc(=O)[nH]c(=S)[nH]1 | > 100 µM | 
44 | NCC(NC(=O)OCc1ccccc1)C(=O)O (centres undefined) | > 50 µM | 
45 | Cc1cc2c(cc1C)[n+](=O)c(C(=O)N1CCN(c3ccc([N+](=O)[O-])cc3)CC1)c(C)n2[O-] | > 100 µM | 
46 | CN(C)CCCNc1nccc(-c2c(-c3ccc(F)cc3)nn3cc(C(F)(F)F)ccc23)n1 | > 25 µM | 24.2 µM
47 | N=C(N)n1[nH]c2c(c1=O)CCCC2 | > 100 µM | 
48 | CCC1CC(=O)N(SCC(N)C(=O)O)C1=O (centres undefined) | > 100 µM | 
49 | C[C@H]1CC(=O)C2=CCCC3(SCCCS3)[C@@H]2[C@H]1CO | > 100 µM | 
50 | O=C(OCC12CC3CC(CC(C3)C1)C2)c1ccc(NCc2cc(O)ccc2O)cc1 | 21.6 µM | 
51 | CC(=O)OC1CCC2(C)C(=CCC3C2CCC2(C)C(C(C)C(=O)O)CCC32)C1 (centres undefined) | > 100 µM | 
52 | CC(=O)[O-].CC(=O)[O-].[NH2-].[Pt+2].c1ccncc1 | > 100 µM | 
